According to the supplement of paper PMC12645437, “Orthogonal IMiD-Degron Pairs Induce Selective Protein Degradation in Cells” (ACS Chemical Biology, 2025):
The list shows a part of the results.

What follows are sequences tested against no compound (DMSO) (assay: log2 fold change of degron read counts, EGFP-low vs EGFP+ sorted cells; higher = lower degron-EGFP level without compound (poor expression or instability)). Conditions: compound: DMSO control; 18 h.
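Also: jurkat cells carrying a lentiviral library of mutant zinc finger degrons fused to EGFP plus mCherry, mCherry+ cells FACS sorted, degron abundance counted by next-generation sequencing.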

| Sequence | log2 fold change of degron read counts |
| --- | --- |
| FQCDICGAGFTQKGNLLRHIKL | -2.2 |
| FFCPQCGAEFTQKGNLLRHIKL | -1.61 |
| FNCDQCGAFFTQKGNLLRHIKL | -0.394 |
| FRCEICGHYFTQKGNLLRHIKL | -0.96 |
| FNCNQCGHAFTQKGNLLRHIKL | 0.702 |
| LRCEICGFACTQKGNLLRHIKL | 0.293 |
| LVCEICGFYCTQKGNLLRHIKL | 0.566 |
| FECNQCGHAFTQKGNLLRHIKL | -1.71 |
| FKCPICGACFTQKGNLLRHIKL | -0.44 |
| FGCSVCGHYFTQKGNLLRHIKL | 1.13 |
| FTCNQCGATFTQKGNLLRHIKL | -1.32 |
| FYCNQCGRVFTQKGNLLRHIKL | 0.655 |
| LICNQCGFACTQKGNLLRHIKL | 0.365 |
| FWCDQCGAPFTQKGNLLRHIKL | -0.384 |
| FICNVCGACFTQKGNLLRHIKL | 0.199 |
| FVCEQCGAIFTQKGNLLRHIKL | -0.738 |

| Sequence | log2 fold change of degron read counts |
| --- | --- |
| FDCEICGHGFTQKGNLLRHIKL | -0.622 |
| FVCNQCGRMFTQKGNLLRHIKL | -0.397 |
| FWCPQCGAPFTQKGNLLRHIKL | 0.609 |
| FICDICGANFTQKGNLLRHIKL | -1.41 |
| FDCEICGRVFTQKGNLLRHIKL | -1.35 |
| FKCPVCGANFTQKGNLLRHIKL | -0.248 |
| FMCPICGAMFTQKGNLLRHIKL | 0.253 |
| FRCPICGATFTQKGNLLRHIKL | -0.363 |
| FGCDVCGALFTQKGNLLRHIKL | -1.04 |
| FYCDQCGAEFTQKGNLLRHIKL | -1.43 |
| FGCPQCGACFTQKGNLLRHIKL | -0.911 |
| FLCEICGHCFTQKGNLLRHIKL | -1.34 |
| LSCEICGFRCTQKGNLLRHIKL | -0.119 |
| FGCNICGADFTQKGNLLRHIKL | 0.0669 |
| FTCDQCGACFTQKGNLLRHIKL | -1.17 |
| FICEICGRQFTQKGNLLRHIKL | -0.902 |
